Experimental data: the supplement of paper PMC10126150
Sequences with one replicate were seen in a single cluster, so their values are uncertain.

Tested on: ATP
Assay: switch fluorescence ratio, 500 uM ATP over buffer (Cy3 cluster intensity, sum of 5 cycles each) (fold (ratio)); higher = stronger signal-on switching upon ATP binding; sequences stand for … in TCGTCGGCAGCGTCAGATGTGTATAAGAGACAGTTTTTTTTTTTTTTTTTTTTTTTTT…TC
Conditions: aptamer strand: ATP DNA aptamer (quencher-CACCTGGGGGAGTATTGCGGAGGAAGG + anchor), 100 nM annealed; ATP concentration: 500 uM; one replicate
In short: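 Per cluster, summed Cy3 intensity from the target cycles was divided by that from the buffer cycles to give the fluorescence ratio, then averaged per switch-domain sequence. Clusters outside 100-1000 RFU were excluded. The Cy3-labelled switching-strand clusters, on a modified Illumina MiSeq flow-cell, were annealed to 100 nM quencher-labelled ATP aptamer and imaged in selection buffer, then after 15 min with 500 uM ATP at 22 °C, for five cycles with NaOH stripping and re-annealing between them.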
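Further: ATP exposure 15 min at 22 °C before imaging.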

Sequence | switch fluorescence ratio
AAACACGCGA | 1.24
AAGTGTCCAT | 0.968
TCATCTGTTA | 1.06
CATGGAGTTA | 1.04
AGAACAATCT | 0.98
TGCATGTCCC | 1.31
GTTTACTGG | 0.963
AGGAATCAAA | 0.961
GGAACTATTG | 0.997
GAAGGCAGGA | 0.964
AGTGCAACCT | 1.09
CTAACCCATG | 1.12
GAGACGGGCT | 1.02
CACGGTTCTT | 0.985
CACTTTGGAC | 1.06
ATTTAAACGT | 1.06
ATGGTTTTAC | 0.99
ATGTTAAGTT | 0.977
GTTAGTAATA | 0.997
ATGGCCCAAG | 0.979
CATAGAGGTA | 1.01
TAACTTCTGA | 1.07
CAGGACGTTC | 0.997
CTATCTGAGC | 0.994
CCTTTAAATG | 1.07
AGGACACGTT | 1.12

Sequence | switch fluorescence ratio
GTTGAGAAAA | 0.987
TCAGACTTGG | 1.05
TCAACGTTGA | 0.975
AGCGATGCCC | 1.01
GAGCATAATC | 1.26
AGAATAACGG | 1.07
CGCTCGGTTG | 1.02
GGGATCACAA | 1.01
TTGAATACAT | 1.04
CTATTTCGTG | 0.979
GGCGTTGGCG | 1.03
GGACAGTGGG | 1.01
GGGGTCCGGC | 0.994
GCTCTACCGT | 1.07
GTGTTGGGG | 1.01
GGTAAAGAAT | 0.999
CCCGATCCTC | 1.23
CTGCCCTTCA | 1.27
GCTGTTAC | 1.17
ATTTGTAACC | 0.995
CATCATTAGG | 1.05
CTGTGGTGC | 1.08
ACACACAGAA | 1.26
TCAAGATCAA | 1.01
GGTGATTGTT | 1.05
TTAGTAGAGG | 1.01

Sequence | switch fluorescence ratio
CCCTGCTGAT | 1.23
ATTTGCCAG | 0.991
ACGCTCGTGC | 1.05
AGTATAAAGA | 1
GATGCCCTTA | 1.02
ATCTGGCGG | 1.04
CGAAGGCGAT | 1.13
TAACGTCCGT | 1.02
GGTCTAGCAA | 1.48
TTAGAGTAAG | 0.997
GCAGTCATGC | 0.97
TAGAAAGGTA | 1.04
CTTCTCGAGC | 1.08
AACAACGGAA | 1.07
ATCAGTAGGG | 1.03
GGGTGGAGTC | 0.953
GACCCCCGTA | 1.09
TGCATCGGGC | 1.01
GTGGGACTTG | 0.985
AACGGCCTTC | 1.06
AGGTCAAAAC | 0.963
AATCTTCCAT | 1.03
GTGTTGGGTC | 0.969
ATGCTGACGT | 0.986
GTCGTTTACG | 1
GTTATCTCCA | 0.976

Sequence | switch fluorescence ratio
GCGTACTATC | 1.02
ACCAGTTAGT | 1.02
GTAGGTGC | 1.19
GGGCTGAATT | 1
ATTCAATATG | 1.01
TTACGTTTAA | 1.24
ACCCCTATAA | 1.14
AATGATTTCG | 0.964
GCATTTGCAA | 1
ATTTATCGGC | 0.975
CCTGTTGGAC | 1.02
TTGCGTAATG | 1.47
TCACTAGTA | 0.992
CAAGGTCTAG | 1
ATATTAGCGG | 0.97
CTGATGGCTA | 1.05
TTTTCACGA | 0.977
ATTCTGACTC | 1.1
AAAGGGTAAA | 1.07
AATAGGTTCC | 1.05
AGGGTTATCC | 1.06
TGCTGGTTGC | 0.959
CGCTTGGGGC | 1.02
CTTTCCACCT | 1.16
AAAGCCACAG | 1.06
TCAGGCGGT | 0.934

Sequence | switch fluorescence ratio
ACCTACTGAC | 1.26
TCCGTTTGCA | 1.42
GGTGTGGAG | 0.997
CTAATACCCG | 1.04
TCGGGGGTAC | 1.06
GCTATACGAG | 3.57
CAAACACACG | 1.31
TACTTGTGAT | 0.985
ATGAGCCCGA | 0.995
CCGATTCAGT | 1.95
CGGCTGTTG | 1.02
CTGACGGTTG | 1
AACACCAGCT | 0.992
CCTAGAGAAG | 1
AGCGGGTGAG | 0.995
AGAAAGACCT | 1.58
ACGATTCGCG | 0.924
AATCCATGTG | 0.988
CATCTAGGCG | 0.984
GAAGTTGAAT | 0.975
AGTCCTGGTG | 1.64
TCGGTTTTCA | 1.03
CGCGCCACG | 1.03
AGATATACGT | 1.07
AATTCTCTCT | 1.02
ACTTTCTGGT | 0.971

Sequence | switch fluorescence ratio
TAACGTACGC | 1.42
GGATGGTGTA | 1.02
CCACTTTCAA | 1.04
AGAAGGGGCT | 1.03
ATTCGGGGCA | 1.01
GCCGCCGGTT | 1.1
CGGGATGAAG | 1.03
GAGAGTATG | 0.975
GGTAACATAC | 1.2
CCCGAGGGAA | 1.09
GCAAATAATC | 0.971
ACCTTGCTAC | 3.33
AAAACTTGTA | 0.971
CGCACGATGT | 1.06
TATAGAGCG | 1.01
TTATGTTGTA | 0.983
AGGGAGGGCA | 1.01
CGCTTTGGTA | 0.962
TCCCTGGGGT | 1.15
CTGAGCAGT | 1.03
CTTATCGCGG | 0.988
GTGGATTTGC | 0.965
GGAAACTTAT | 1.01
